The text below walks through data of the antibiotic and cytotoxicity screens of Wong et al. (2023).

The list shows a part of the results.

In the assay the test system is HSkMC (human skeletal muscle cells). Nature of the assay: cytotoxicity call (relative viability < 0.9). The settings on record: 10 µM.
For the compound `C[C@H](CO)N1C[C@H](C)[C@H](CN(C)C(=O)Cc2ccncc2)Oc2cc(-c3cncnc3)ccc2S1(=O)=O`, the cytotoxicity call was “inactive”.

Consider `COc1ccccc1Nc1nc(-c2ccc(Cl)cc2)cs1`, for which the cytotoxicity call is “inactive”.

`O=C(O)CSC(=S)N1CCOCC1`: the cytotoxicity call was “inactive”. To `CCOC(=O)[C@H]1C/C=C/C[C@H](C(=O)OCC)C(=O)O[C@H]2[C@@H](OC)O[C@H](CO)[C@@H](OC(=O)Nc3ccc(OC)cc3)[C@@H]2OC1=O` belongs “inactive”; to `CCc1c(C(=O)OC)nnc2cc(C)nn12`, “inactive”. To `C[C@@H]1CN([C@@H](C)CO)C(=O)c2cc(NC(=O)Nc3ccc4c(c3)OCO4)ccc2O[C@@H](C)CCCCO[C@@H]1CN(C)Cc1ccc(C(=O)O)cc1` belongs “inactive”; to `C[C@@H]1CN([C@@H](C)CO)C(=O)c2cc(NS(=O)(=O)c3cccs3)ccc2O[C@@H]1CN(C)S(C)(=O)=O`, “inactive”.

In the case of `CC(=O)n1cc([C@H]2C=C(C(=O)N3CCCCCCC3)O[C@@H](OCc3ccc(CO)cc3)C2)c2ccccc21`, the cytotoxicity call was “inactive”. With `CC(C)NC(=O)N(C)C[C@@H]1Oc2ccc(NC(=O)C3CCCCC3)cc2C(=O)N([C@H](C)CO)C[C@H]1C` the entry was “inactive”; with `C[C@@H]1CCCCO[C@@H](CN(C)S(=O)(=O)c2ccc(F)cc2)[C@@H](C)CN([C@@H](C)CO)C(=O)c2cc(NS(C)(=O)=O)ccc2O1`, “inactive”.

For `Nc1ccc(S(=O)(=O)Nc2ncccn2)cc1`, the cytotoxicity call is “inactive”.

As for `O=C(C[C@@H]1CC[C@H]2[C@@H](COC[C@H](O)CN2S(=O)(=O)c2ccccc2)O1)N[C@H]1CCN(Cc2ccccc2)C1`, the cytotoxicity call is “inactive”.

As for `C[C@@H]1CCCCO[C@@H](CN(C)Cc2ccc(C(=O)Nc3ccccc3N)cc2)[C@@H](C)CN([C@H](C)CO)C(=O)c2cc(NC(=O)Nc3ccc(F)cc3)ccc2O1`, the cytotoxicity call was “inactive”.

Consider `C[C@@H]1CCCCO[C@H](CN(C)C(=O)Nc2cccc3ccccc23)[C@@H](C)CN([C@H](C)CO)C(=O)c2cc(NS(=O)(=O)c3ccc(Cl)cc3)ccc2O1`, for which the cytotoxicity call was “active”. With `C[C@H](CO)N1C[C@H](C)[C@H](CN(C)S(=O)(=O)c2ccccc2)Oc2ncc(-c3cccc(F)c3)cc2C1=O` the entry was “inactive”; with `Cc1ccc(S(=O)(=O)N(C)C[C@@H]2OCCCC[C@H](C)Oc3ccc(NC(=O)CCC(F)(F)F)cc3C(=O)N([C@H](C)CO)C[C@H]2C)cc1`, “inactive”; with `C[C@@H]1CN([C@H](C)CO)C(=O)c2cc(C#CC3CC3)cnc2O[C@H]1CN(C)S(=O)(=O)c1cccc(F)c1`, “inactive”. As for `C[C@H]1CN([C@@H](C)CO)C(=O)Cc2cc(NC(=O)CCC(F)(F)F)ccc2O[C@@H]1CN(C)S(C)(=O)=O`, the cytotoxicity call is “inactive”. With `C[C@@H]1CN([C@@H](C)CO)C(=O)c2cc(NC(=O)NC3CCCCC3)ccc2O[C@@H](C)CCCCO[C@H]1CN(C)S(=O)(=O)c1ccccc1` the entry was “inactive”. To `C[C@H](CO)N1C[C@H](C)[C@@H](CN(C)Cc2ccc(Cl)c(Cl)c2)Oc2ccc(NS(=O)(=O)c3ccc(Cl)cc3)cc2C1=O` belongs “active”; to `C[C@H]1CN([C@@H](C)CO)S(=O)(=O)c2ccc(-c3cncnc3)cc2O[C@@H]1CN(C)C(=O)NC1CCCC1`, “inactive”; to `C[C@@H]1CN([C@@H](C)CO)C(=O)Cc2cc(NS(=O)(=O)c3ccc(Cl)cc3)ccc2O[C@H]1CN(C)C`, “inactive”. With `C[C@@H]1CCCCO[C@@H](CN(C)C(=O)C2CCCCC2)[C@H](C)CN([C@H](C)CO)C(=O)c2cc(NC(=O)NC3CCCCC3)ccc2O1` the entry was “inactive”. As for `CCn1ncc(NC(=O)Cn2ccc(C(=O)OC)n2)n1`, the cytotoxicity call is “inactive”.

On to `Cc1ccc(S[C@]2(C(=O)NC3CC3)CC(=O)N(C3CCCCC3)[C@@H]2c2ccc(CO)cc2I)cc1`, for which the cytotoxicity call is “inactive”. With `NC(=O)NCC#Cc1ccc2c(c1)[C@]1(C(=O)N2)[C@H](c2ccccc2OCCO)N2[C@H](c3ccccc3)[C@H](c3ccccc3)OC(=O)[C@H]2[C@@H]1C(=O)N1CCCCCCC1` the entry was “inactive”; with `Cc1ccc(S(=O)(=O)N(C)C[C@@H]2Oc3c(NC(=O)C4CCOCC4)cccc3C(=O)N([C@H](C)CO)C[C@@H]2C)cc1`, “inactive”; with `NCc1cccc(N2CCCCC2)c1`, “inactive”. To `C[C@H]1CN([C@@H](C)CO)C(=O)c2cc(C#CCN(C)C)cnc2O[C@H]1CN(C)C(=O)CCN1CCCCC1` belongs “inactive”; to `COC(=O)c1c2oc(c1C(=O)OC)C(=O)N(C)Cc1cn(nn1)C[C@H](Cc1ccccc1)NC(=O)N[C@H](CO)CC2`, “inactive”. With `Cc1ncc(COP(=O)(O)O)c(C=O)c1O` the entry was “inactive”; with `C[C@@H]1CN([C@H](C)CO)C(=O)c2cccc(NC(=O)Nc3cccc4ccccc34)c2O[C@H]1CN(C)C(=O)Nc1cccc2ccccc12`, “active”; with `Cc1noc(C)c1NC(=O)N(C)C[C@@H]1Oc2ccc(NC(=O)CCCN(C)C)cc2C(=O)N([C@@H](C)CO)C[C@H]1C`, “inactive”. Take `CN1CCN(C(=O)C[C@@H]2CC[C@@H]3[C@H](COc4ccc(NC(=O)C5CCCCC5)cc4C(=O)N3C)O2)CC1`: the cytotoxicity call is “inactive”. To `C[C@H](CO)N1C[C@H](C)[C@H](CN(C)C(=O)c2ccccn2)Oc2cc(C#Cc3ccc(F)cc3)ccc2S1(=O)=O` belongs “inactive”. With `C[C@@H]1CCCCO[C@H](CN(C)C(=O)NC2CCCCC2)[C@H](C)CN([C@H](C)CO)C(=O)c2cc(NC(=O)C3CCCCC3)ccc2O1`, the cytotoxicity call was “inactive”. To `Cn1c(=O)n2n(c1=O)[C@H](C1CC1)C=C1CN3[C@@H]([C@H](CCn4cc(-c5cccc(/C=C/C(=O)NO)c5)nn4)OC(=O)[C@@H]3Cc3ccccc3)[C@@H]12` belongs “inactive”; to `S=C1NCN(Cc2cccs2)CN1`, “inactive”; to `CO[C@@H]1CN(C)C(=O)c2ccc(NS(=O)(=O)c3cn(C)cn3)cc2OC[C@@H](C)N(CC2CC2)C[C@H]1C`, “inactive”. To `Cc1ccc(S(=O)(=O)Nc2cccc3c2O[C@@H](CN(C)C(=O)NC(C)C)[C@@H](C)CN([C@@H](C)CO)C3=O)cc1` belongs “inactive”.
